Data published in PMC4336329 (PLoS ONE, 2015).
In all, about 310,000 compounds went through this assay and about 14,000 (4.5%) showed an effect of 50% or more. Effects have a minus sign here. The list shows a part of the results.

Biological target: human ether-à-go-go-related gene (hERG) potassium channel (human, UniProt Q12809)
Test: primary screen, population patch clamp on CHO cells stably expressing hERG
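Note: peak tail current of the secondary pulse compared with the same well before compound.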

Chain of human ether-à-go-go-related gene (hERG) potassium channel (Q12809 whole entry, looked up): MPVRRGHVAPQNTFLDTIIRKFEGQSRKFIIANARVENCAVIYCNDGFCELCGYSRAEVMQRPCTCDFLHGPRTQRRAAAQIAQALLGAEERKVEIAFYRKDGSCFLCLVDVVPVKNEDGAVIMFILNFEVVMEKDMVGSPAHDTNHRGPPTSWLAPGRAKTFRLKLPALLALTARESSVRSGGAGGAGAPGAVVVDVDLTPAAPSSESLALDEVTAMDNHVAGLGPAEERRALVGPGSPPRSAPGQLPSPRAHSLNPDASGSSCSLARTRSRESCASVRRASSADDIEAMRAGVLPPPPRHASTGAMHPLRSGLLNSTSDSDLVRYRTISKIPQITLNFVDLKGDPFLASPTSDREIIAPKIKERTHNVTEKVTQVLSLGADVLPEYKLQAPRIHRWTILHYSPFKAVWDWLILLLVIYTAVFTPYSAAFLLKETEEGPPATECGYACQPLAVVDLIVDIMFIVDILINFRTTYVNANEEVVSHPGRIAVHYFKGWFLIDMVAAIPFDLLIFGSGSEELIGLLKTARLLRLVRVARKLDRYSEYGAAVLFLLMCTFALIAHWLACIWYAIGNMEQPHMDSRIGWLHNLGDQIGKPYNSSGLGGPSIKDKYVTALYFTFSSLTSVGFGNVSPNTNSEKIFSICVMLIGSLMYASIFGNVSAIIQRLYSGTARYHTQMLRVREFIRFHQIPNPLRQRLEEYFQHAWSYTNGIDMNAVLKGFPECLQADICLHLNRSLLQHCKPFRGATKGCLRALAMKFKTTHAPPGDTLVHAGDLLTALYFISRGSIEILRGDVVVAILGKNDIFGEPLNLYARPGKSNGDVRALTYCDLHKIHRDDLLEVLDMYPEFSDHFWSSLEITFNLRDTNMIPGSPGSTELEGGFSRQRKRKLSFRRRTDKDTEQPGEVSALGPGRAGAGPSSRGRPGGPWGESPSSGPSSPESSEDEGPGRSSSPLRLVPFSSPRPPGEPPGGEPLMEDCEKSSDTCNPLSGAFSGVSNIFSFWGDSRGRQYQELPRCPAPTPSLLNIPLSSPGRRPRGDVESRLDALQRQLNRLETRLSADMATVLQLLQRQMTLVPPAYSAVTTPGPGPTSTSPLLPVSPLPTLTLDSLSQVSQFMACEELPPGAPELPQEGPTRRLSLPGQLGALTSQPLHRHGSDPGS

| Compound | hERG current change (%, negative = inhibition) at 10uM [%] |
| --- | --- |
| CCCCSc1cc(C)nc2ncnn12 | -6.82 |
| CC12CC3CC(C)(C1)CC(C(=O)NNC(=O)c1ccncc1)(C3)C2 | 0.638 |
| O=C(C1CC1)N1CCc2[nH]c3ccccc3c2C1 | 12 |
| Cc1ccc(C2CN=NC23CCc2ccccc2C3=O)cc1 (stereo not shown) | -2.87 |
| O=C(CCl)Nc1ccccc1Sc1ccc(Cl)cc1 | -7.64 |
| Cn1cnc2c(cnn2-c2ccccc2)c1=O | 10.6 |
| O=C(C1c2ccccc2C(=O)N2CCc3ccccc3C12)N1CCN(Cc2ccccc2)CC1 (stereo not shown) | -9.6 |
| Cc1ccc(C(C(=O)NCC2CCCO2)N(C(=O)c2snc(C(N)=O)c2N)c2ccc(C)c(C)c2)o1 (stereo not shown) | -9.57 |
| CSc1ccc(CNC(=O)Cn2nc(C)c3c(C)n(-c4ccc(C)cc4)nc3c2=O)cc1 | -15 |
| CCCCNC(=O)C1CCN(c2nc(OC)nc(OC)n2)CC1 | -10.6 |
| COc1ccc(CNC(=O)c2ccc(-c3ccccc3)cc2)cc1OC | 0.777 |
| CC(=O)C1=C(O)CC(c2ccccc2)CC1=NCCc1c(C)[nH]c2ccccc12 (stereo not shown) | 0.412 |
| COc1ccc(C(O)c2nccn2Cc2ccccc2)cc1OC (stereo not shown) | -9 |
| CCOC(=O)COc1ccc2c(c1)C(=O)CC(C)(C)O2 | 1.78 |
| Cc1ccc(C(=O)NC2CCC(C)CC2)o1 (stereo not shown) | 0.0261 |
| O=C(Nc1ccc(N2CCCC2)cc1)c1cc(Br)ccc1Cl | 14.2 |
| CCCCOCCCNS(=O)(=O)c1ccccc1 | 2.77 |
| COc1ccc(C(=O)Nc2nnc(-c3cccs3)s2)cc1 | 21 |
| C=C1/C(=C\C=C2/CCC[C@]3(C)[C@@H]([C@H](C)/C=C/[C@@H](O)C4CC4)CC[C@@H]23)C[C@@H](O)C[C@@H]1O | -19.9 |
| Cl.N[C@@H]1C[C@H]1c1ccccc1 | 14 |
| Cc1ccc2nsnc2c1NC(=O)c1cccnc1Cl | 11.6 |
| CSc1ccc(C2C(C(=O)c3ccco3)=C(O)C(=O)N2c2nnc(SC)s2)cc1 (stereo not shown) | 13.4 |
| COc1ccc(Br)c(C(=O)NCC2CCCCC2)c1 | 0.58 |
| O=C1[C@H]2[C@@H](c3ccc(Cl)cc3)N3C(=O)N(c4cccc(Cl)c4)C(=O)[C@@]3(Cc3ccc(Cl)cc3)[C@H]2C(=O)N1C1CCCCC1 | 22 |
| O=C(NCc1ccc2c(c1)OCO2)c1ccc2c(=O)n(C3CCCC3)c(=O)[nH]c2c1 | 4.61 |
| CCC1CCCCN1CCCNC(=O)c1ccc2c(c1)c(C)c(C)n2CC (stereo not shown) | -38.8 |
| Cc1cc(C)c(NC(=S)N2CCC(N(C)CC3CCCO3)CC2)c(C)c1 (stereo not shown) | 6.06 |
| Cc1n[nH]c(C)c1CNCc1c(C(=O)N2CCCCCCC2)nc2ccc(Cl)cn12 | 8.07 |

| Compound | hERG current change (%, negative = inhibition) at 10uM [%] |
| --- | --- |
| CC1(CC(=O)N/N=C/c2ccc(OCc3ccc(Cl)cc3Cl)cc2)OCCCO1 | 5.38 |
| CC(=O)Nc1ccc(C2=NN(C)C(=NCc3ccccc3)SC2)cc1 | 9.11 |
| COc1cc(C(=O)N(CCN(C)C)CC2CCCN(Cc3ccccc3F)C2)ccc1C (stereo not shown) | -27 |
| Cc1cccc(NC(=O)CNC(=O)c2cccc(S(=O)(=O)NCc3cccs3)c2)c1C | 2.53 |
| COc1cc2c(c(OC)c1CC=C(C)C)C[C@H](c1ccc(O)cc1O)CO2 | 8.09 |
| N#CC(c1ccc(Cl)cc1)c1ccc2c(C(F)(F)F)cc(C(F)(F)F)nc2n1 (stereo not shown) | 6.7 |
| COC(=O)N1c2ccccc2CCc2ccccc21 | 21.5 |
| O=C(c1ccc2c(c1)OCO2)C1CCCN(Cc2ccccc2OC(F)F)C1 (stereo not shown) | -58.8 |
| O=C(COC(=O)c1cccc(S(=O)(=O)N2CCOCC2)c1)Nc1ccc(Cl)cn1 | -61.1 |
| O=C(CSc1nc(Cc2ccccc2)nc2ccccc12)Nc1nc2c(s1)CCCC2 | 17.8 |
| Cc1cc(=O)oc2cc(OC(=O)c3cncc(Br)c3)ccc12 | 11.7 |
| COc1ccc(C2/C=C\CN(C(=O)c3ccc(C)cc3)CC(=O)N2Cc2ccc(F)cc2)cc1 (stereo not shown) | -43.7 |
| O=C(COc1cccc(C(F)(F)F)c1)NCC(c1cccs1)N1CCOCC1 (stereo not shown) | -36.7 |
| O=C(O)C(Cc1c[nH]c2ccccc12)NS(=O)(=O)c1cccc(Cl)c1Cl (stereo not shown) | 21.1 |
| COCc1c(C(=O)NCc2ccccc2CN2CCCC2)oc2ccccc12 | -66.4 |
| O=c1[nH]c(/C=C/c2cccc([N+](=O)[O-])c2)c([N+](=O)[O-])c(=O)[nH]1 | 7.62 |
| COCc1ccc(-c2c(-c3ccccc3OC)sc3cc4c(cc23)OCO4)cc1 | 15.6 |
| COc1ccccc1NC(=O)/C=C\C(=O)O | 19.2 |
| O=c1oc2ccccc2c(NCc2cccc(F)c2)c1[N+](=O)[O-] | -4.55 |
| COc1cccc(CNC(=O)c2cccs2)c1 | -4.23 |
| Cc1ccc(-c2ccc(S(=O)(=O)N3CC(C)OC(C)C3)cc2)cc1 (stereo not shown) | 18.7 |
| CCOc1ccc(NC2c3ccccc3C(=O)N2Cc2ccc3c(c2)OCO3)cc1 (stereo not shown) | -1.85 |
| CCOc1ccc(N(CC(=O)NCc2ccc3c(c2)OCO3)C(=O)c2csnn2)cc1 | -15.3 |
| CC(C)CCN(C(=O)C1CSC2(C)CCC(=O)N12)c1c(N)n(Cc2ccccc2)c(=O)[nH]c1=O (stereo not shown) | 6.21 |
| Cc1ccc(-c2csc(NC(=O)c3cccc(C)c3)c2C(=O)O)cc1 | 27.6 |
| CCCc1cc(=O)oc2cc(OCC(=O)N3CCN(C(=O)C4COc5ccccc5O4)CC3)ccc12 (stereo not shown) | -65.9 |
| C/C(=N\NC(N)=O)c1ccc(Cl)s1 | 19 |
